Reference: PubChem BioAssay (NCI)
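96-well plates; 48 h exposure; 5 concentrations. Endpoints by linear interpolation between flanking doses. Not reached: highest tested concentration assigned. Here, GI50 denotes the concentration required for 50% inhibition of growth.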 The source holds more than one record for some entries. The list is limited to them. The source may hold further records. For part of these data: Records of one sample usually come from different ranges of test concentrations, which the source does not state; a value can be the end of its range. For part of these data: The values listed for one entry are repeats (runs, samples, wells, individuals or studies). Brackets tell where a record comes from. The letters are not those of the source and start again with each entry.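 The concentration for full growth arrest is given as TGI.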

Tests used:
Assay in all cases: NCI anticancer screen, dose series, 48 h
SK-MEL-28 melanoma = tested on: SK-MEL-28 melanoma
SR leukemia = tested on: SR leukemia
K-562 leukemia = tested on: K-562 leukemia
IGROV1 ovarian = tested on: IGROV1 ovarian
SK-MEL-2 melanoma = tested on: SK-MEL-2 melanoma
CAKI-1 renal = tested on: CAKI-1 renal
SN12C renal = tested on: SN12C renal
UACC-62 melanoma = tested on: UACC-62 melanoma
ACHN renal = tested on: ACHN renal
SNB-19 CNS = tested on: SNB-19 CNS
HCC-2998 colon = tested on: HCC-2998 colon
HOP-18 NSCLC = tested on: HOP-18 NSCLC
RPMI-8226 leukemia = tested on: RPMI-8226 leukemia
HCT-116 colon = tested on: HCT-116 colon
786-0 renal = tested on: 786-0 renal
HOP-62 NSCLC = tested on: HOP-62 NSCLC
SNB-75 CNS = tested on: SNB-75 CNS
HS 578T breast = tested on: HS 578T breast
M14 melanoma = tested on: M14 melanoma
PC-3 prostate = tested on: PC-3 prostate
DU-145 prostate = tested on: DU-145 prostate
SF-539 CNS = tested on: SF-539 CNS
TK-10 renal = tested on: TK-10 renal
MDA-MB-231 breast = tested on: MDA-MB-231 breast
CCRF-CEM leukemia = tested on: CCRF-CEM leukemia
T-47D breast = tested on: T-47D breast
NCI-H226 lung = tested on: NCI-H226 lung
MALME-3M melanoma = tested on: MALME-3M melanoma
NCI/ADR-RES ovarian = tested on: NCI/ADR-RES ovarian
COLO 205 colon = tested on: COLO 205 colon
SW-620 colon = tested on: SW-620 colon
SK-MEL-5 melanoma = tested on: SK-MEL-5 melanoma
NCI-H522 lung = tested on: NCI-H522 lung
MDA-MB-435 = tested on: MDA-MB-435
HCT-15 colon = tested on: HCT-15 colon
SF-268 CNS = tested on: SF-268 CNS
LOX IMVI melanoma = tested on: LOX IMVI melanoma
OVCAR-5 ovarian = tested on: OVCAR-5 ovarian
A498 renal = tested on: A498 renal
UACC-257 melanoma = tested on: UACC-257 melanoma
KM12 colon = tested on: KM12 colon
NCI-H23 lung = tested on: NCI-H23 lung

CC(C)Nc1cc(-c2c[nH]c(C(=O)N[C@H](CO)c3cccc(Cl)c3)c2)c(Cl)cn1
TGI (SK-MEL-28 melanoma): 9.01 µM [sample A, 1 test] and 612 nM [sample B, 1 test]

CC(C)c1cnn2c(NCc3ccccc3)cc(NC[C@H]3CCNC[C@@H]3O)nc12
TGI (SR leukemia): 657 nM [sample A, mean of 2 tests] and 17.9 µM [sample B, mean of 2 tests]

O=C(NOC[C@H](O)CO)c1ccc(F)c(F)c1Nc1ccc(I)cc1F
GI50 (K-562 leukemia): 1.78 µM [sample A, mean of 2 tests] and 16.8 nM [sample B, mean of 2 tests]
GI50 (IGROV1 ovarian): 278 nM [sample A, mean of 2 tests] and 25.5 nM [sample B, mean of 2 tests]
TGI (SK-MEL-2 melanoma): < 10 nM [sample A, mean of 2 tests] and 100 nM [sample B, mean of 2 tests]
GI50 (CAKI-1 renal): 904 nM [sample A, mean of 2 tests] and 42.6 nM [sample B, mean of 2 tests]
GI50 (SN12C renal): 4.57 µM [sample A, mean of 2 tests] and 379 nM [sample B, mean of 2 tests]
TGI (SK-MEL-28 melanoma): > 100 µM [sample A, mean of 2 tests] and 35.5 nM [sample B, mean of 2 tests]
TGI (UACC-62 melanoma): 525 nM [sample A, mean of 2 tests] and 40.4 nM [sample B, mean of 2 tests]
GI50 (ACHN renal): 3.79 µM [sample A, mean of 2 tests] and 240 nM [sample B, mean of 2 tests]

C=C(CC(NC(=O)c1ccc(C(CC)Cc2cnc3nc(N)nc(N)c3n2)cc1)C(=O)O)C(=O)O (centres undefined)
GI50 (SNB-19 CNS): 675 nM and 28.8 nM
TGI (HCC-2998 colon): 617 nM and > 100 µM

CN(Cc1cnc2nc(N)nc(N)c2n1)c1ccc(C(=O)N[C@@H](CCC(=O)O)C(=O)O)cc1
TGI (HOP-18 NSCLC): 0.00247 nM and 189 µM
GI50 (RPMI-8226 leukemia): 1.26 µM [1 test] and 121 nM [mean of 4 tests]
TGI (HCT-116 colon): 2.5 nM, > 247 µM, > 250 µM
GI50 (786-0 renal): 488 nM [mean of 2 tests] and 25.1 nM [mean of 5 tests]
TGI (HOP-62 NSCLC): 5.5 µM, 35.4 µM, > 250 µM
TGI (SNB-75 CNS): 9.64 µM, 213 µM, > 250 µM
GI50 (HS 578T breast): > 250 µM [mean of 2 tests] and 151 µM [mean of 31 tests] and 8.08 µM [mean of 5 tests]
GI50 (M14 melanoma): 488 nM [mean of 2 tests] and 29.3 nM [mean of 5 tests]
GI50 (PC-3 prostate): > 250 µM [mean of 2 tests] and 65.5 nM [mean of 30 tests] and 2.62 nM [mean of 5 tests]
GI50 (HCC-2998 colon): > 250 µM [1 test] and 93.7 nM [mean of 2 tests]
GI50 (DU-145 prostate): 488 nM [1 test] and 54.8 nM [mean of 29 tests] and 21.5 nM [mean of 5 tests]
TGI (SF-539 CNS): 7.77 µM, 156 µM, > 250 µM
GI50 (TK-10 renal): > 250 µM [1 test] and 8.12 µM [mean of 4 tests] and 43 µM [mean of 76 tests]
GI50 (MDA-MB-231 breast): > 250 µM [mean of 2 tests] and 2.37 µM [mean of 5 tests]
TGI (CCRF-CEM leukemia): 8.33 µM and 188 µM
GI50 (T-47D breast): > 250 µM [1 test] and 1.43 µM [mean of 4 tests]
GI50 (SR leukemia): 3.8 nM [mean of 4 tests] and 43.5 nM [mean of 65 tests]
GI50 (NCI-H226 lung): > 250 µM [1 test] and 3.16 µM [mean of 5 tests]

COc1ccc(S(=O)(=O)N2CCN(C(=O)c3ccc(-c4ccccc4)cc3)CC2C(=O)NO)cc1 (centres undefined)
TGI (MALME-3M melanoma): 7.45 µM and > 100 µM
TGI (HCT-116 colon): 9.04 µM and > 100 µM
GI50 (NCI/ADR-RES ovarian): 2.71 µM and > 100 µM
TGI (NCI/ADR-RES ovarian): 9.62 µM and > 100 µM
GI50 (COLO 205 colon): 2.93 µM and > 100 µM
TGI (K-562 leukemia): 4.21 µM and > 100 µM
GI50 (SW-620 colon): 975 nM and > 100 µM
TGI (SW-620 colon): 3.55 µM and > 100 µM
TGI (HOP-62 NSCLC): 5.67 µM and > 100 µM
TGI (SK-MEL-5 melanoma): 6.1 µM and > 100 µM
GI50 (NCI-H522 lung): 341 nM and 42.3 µM
TGI (NCI-H522 lung): 841 nM and > 100 µM
TGI (IGROV1 ovarian): 4.47 µM and > 100 µM
GI50 (SK-MEL-2 melanoma): 3.51 µM and > 100 µM
TGI (SK-MEL-2 melanoma): 9.16 µM and > 100 µM
GI50 (HS 578T breast): 759 nM and > 100 µM
TGI (HS 578T breast): 4.51 µM and > 100 µM
TGI (MDA-MB-435): 3.92 µM and > 100 µM
GI50 (HCT-15 colon): 7.1 µM and > 100 µM
TGI (PC-3 prostate): 4.96 µM and 80.6 µM
GI50 (SNB-19 CNS): 9.25 µM and > 100 µM
TGI (SF-268 CNS): 3.39 µM and 69.7 µM
GI50 (HCC-2998 colon): 1.94 µM and > 100 µM
TGI (HCC-2998 colon): 5.71 µM and > 100 µM
TGI (SN12C renal): 7.13 µM and > 100 µM
GI50 (LOX IMVI melanoma): 166 nM and 1.71 µM
TGI (LOX IMVI melanoma): 353 nM and 4.11 µM
GI50 (SK-MEL-28 melanoma): 3.49 µM and > 100 µM
TGI (DU-145 prostate): 9.57 µM and > 100 µM
GI50 (OVCAR-5 ovarian): 8.96 µM and > 100 µM
TGI (A498 renal): 5.78 µM and > 100 µM
GI50 (UACC-257 melanoma): 6.81 µM and > 100 µM
TGI (KM12 colon): 8 µM and > 100 µM
TGI (MDA-MB-231 breast): 4.2 µM and 78.1 µM
GI50 (T-47D breast): 8.06 µM and > 100 µM
GI50 (NCI-H23 lung): 3.2 µM and > 100 µM

CCOC(=O)c1[nH]c(Br)c(-c2ccc(OC)c(OC)c2)c1Br
TGI (LOX IMVI melanoma): 37.7 nM and 11.4 µM
TGI (KM12 colon): 951 nM and 12.7 µM
TGI (NCI-H23 lung): 2.16 µM and 37 µM
